# The supplement of paper PMC8728848
# The list shows a part of the results.
# B1: Cohesin-mDCIR (Macaca mulatta) (protein)
# chain: GLDDLDAVRIKVDTVNAKPGDTVRIPVRFSGIPSKGIANCDFVYSYDPNVLEIIEIEPGDIIVDPNPDKSFDTAVYPDRKIIVFLFAEDSGTGAYAITKDGVFATIVAKVKEGAPNGLSVIKFVEVGGFANNDLVEQKTQFFDGGVNVGDTTEPATPTTPVTTPTTTDDLDAASFQKYSQLLEKMTTKDLVHTTLECVKKNMTTEETAWSCCPKNWKPFSSNCYFISTESASWQKSEKDCARMEAHLLVINTREEQDFIFQNLQEESAYFVGLSDPEGQRHWQWVDRTPYNESSTFWHPHEPSDPDERCVVLNFRKTPKRWGWNDVHCIVHQRSVCEMMKIHLHHHHHH
# Assays:
# Test in all cases: glycan array binding signal (z-score within array); higher = stronger binding
# Details in all cases: glycan notation: IUPAC condensed, linker removed
# Fuc(a1-3)GlcNAc = biological target: Fuc(a1-3)GlcNAc
# Method in brief: (§1)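 Glycan array data were curated from 3228 arrays in the Consortium for Functional Glycomics database and kept only where the protein sequence was available. Glycan names were converted to IUPAC-condensed notation, and columns mapping to the same glycan were averaged. The binding signal is a within-array Z-score, averaged across arrays of the same protein sequence at different concentrations or buffers and across linkers. Negative Z-scores can be read as non-binding.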
# [1] = biological target: Fuc(a1-3)[Gal(b1-4)]Glc6S
# Method in brief: as §1
# [2] = biological target: Fuc(a1-3)[Gal(b1-4)]GlcNAc
# Method in brief: as §1
# [3] = biological target: Fuc(a1-3)[Gal(b1-4)]GlcNAc(b1-2)Man
# Method in brief: as §1
# [4] = biological target: Fuc(a1-3)[Gal(b1-4)]GlcNAc(b1-2)Man(a1-3)[Fuc(a1-3)[Gal(b1-4)]GlcNAc(b1-2)Man(a1-6)]Man(b1-4)GlcNAc(b1-4)GlcNAc
# Method in brief: as §1
# [5] = biological target: Fuc(a1-3)[Gal(b1-4)]GlcNAc(b1-2)Man(a1-3)[Fuc(a1-3)[Gal(b1-4)]GlcNAc(b1-2)Man(a1-6)]Man(b1-4)GlcNAc(b1-4)[Fuc(a1-6)]GlcNAc
# Method in brief: as §1
# [6] = biological target: Fuc(a1-3)[Gal(b1-4)]GlcNAc(b1-3)Gal(b1-3)[Fuc(a1-4)]GlcNAc
# Method in brief: as §1
# [7] = biological target: Fuc(a1-3)[Gal(b1-4)]GlcNAc(b1-3)Gal(b1-4)[Fuc(a1-3)]GlcNAc
# Method in brief: as §1
# [8] = biological target: Fuc(a1-3)[Gal(b1-4)]GlcNAc(b1-3)Gal(b1-4)[Fuc(a1-3)]GlcNAc(b1-3)Gal(b1-4)[Fuc(a1-3)]GlcNAc
# Method in brief: as §1
# [9] = biological target: Fuc(a1-3)[Gal(b1-4)]GlcNAc(b1-3)GalNAc
# Method in brief: as §1
# [10] = biological target: Fuc(a1-3)[Gal(b1-4)]GlcNAc(b1-6)GalNAc
# Method in brief: as §1
# [11] = biological target: Fuc(a1-3)[Gal(b1-4)]GlcNAc(b1-6)[Gal(b1-3)GlcNAc(b1-3)]Gal(b1-4)Glc
# Method in brief: as §1
# [12] = biological target: Fuc(a1-3)[Gal(b1-4)]GlcNAc6S
# Method in brief: as §1
# [13] = biological target: Fuc(a1-3)[Gal3S(b1-4)]Glc
# Method in brief: as §1
# [14] = biological target: Fuc(a1-3)[Gal3S(b1-4)]GlcNAc
# Method in brief: as §1
# [15] = biological target: Fuc(a1-3)[Gal3S(b1-4)]GlcNAc6S
# Method in brief: as §1
# [16] = biological target: Fuc(a1-3)[GalNAc(b1-4)]GlcNAc
# Method in brief: as §1
# [17] = biological target: Fuc(a1-3)[GalNAc(b1-4)]GlcNAc6S
# Method in brief: as §1
# Fuc(a1-4)GlcNAc = biological target: Fuc(a1-4)GlcNAc
# Method in brief: as §1
# Fuc(b1-3)GlcNAc = biological target: Fuc(b1-3)GlcNAc
# Method in brief: as §1
# Gal(a1-2)Gal = biological target: Gal(a1-2)Gal
# Method in brief: as §1
# Gal(a1-3)Gal = biological target: Gal(a1-3)Gal
# Method in brief: as §1
# Gal(a1-3)Gal(b1-3)GlcNAc = biological target: Gal(a1-3)Gal(b1-3)GlcNAc
# Method in brief: as §1
# [18] = biological target: Gal(a1-3)Gal(b1-3)GlcNAc(b1-2)Man
# Method in brief: as §1
# [19] = biological target: Gal(a1-3)Gal(b1-3)GlcNAc(b1-2)Man(a1-3)[Gal(a1-3)Gal(b1-3)GlcNAc(b1-2)Man(a1-6)]Man(b1-4)GlcNAc(b1-4)GlcNAc
# Method in brief: as §1
# [20] = biological target: Gal(a1-3)Gal(b1-3)GlcNAc(b1-3)GalNAc
# Method in brief: as §1
# [21] = biological target: Gal(a1-3)Gal(b1-3)GlcNAc(b1-6)GalNAc
# Method in brief: as §1
# [22] = biological target: Gal(a1-3)Gal(b1-3)[Fuc(a1-4)]GlcNAc(b1-2)Man(a1-3)[Gal(a1-3)Gal(b1-3)[Fuc(a1-4)]GlcNAc(b1-2)Man(a1-6)]Man(b1-4)GlcNAc(b1-4)GlcNAc
# Method in brief: as §1
# Gal(a1-3)Gal(b1-4)Glc = biological target: Gal(a1-3)Gal(b1-4)Glc
# Method in brief: as §1
# Gal(a1-3)Gal(b1-4)GlcNAc = biological target: Gal(a1-3)Gal(b1-4)GlcNAc
# Method in brief: as §1
# [23] = biological target: Gal(a1-3)Gal(b1-4)GlcNAc(b1-2)Man
# Method in brief: as §1
# [24] = biological target: Gal(a1-3)Gal(b1-4)GlcNAc(b1-2)Man(a1-3)[Gal(a1-3)Gal(b1-4)GlcNAc(b1-2)Man(a1-6)]Man(b1-4)GlcNAc(b1-4)GlcNAc
# Method in brief: as §1
# [25] = biological target: Gal(a1-3)Gal(b1-4)GlcNAc(b1-3)GalNAc
# Method in brief: as §1
# [26] = biological target: Gal(a1-3)Gal(b1-4)GlcNAc(b1-6)GalNAc
# Method in brief: as §1
# [27] = biological target: Gal(a1-3)Gal(b1-4)[Fuc(a1-3)]GlcNAc
# Method in brief: as §1
# [28] = biological target: Gal(a1-3)Gal(b1-4)[Fuc(a1-3)]GlcNAc(b1-2)Man(a1-3)[Gal(a1-3)Gal(b1-4)[Fuc(a1-3)]GlcNAc(b1-2)Man(a1-6)]Man(b1-4)GlcNAc(b1-4)GlcNAc
# Method in brief: as §1
# Gal(a1-3)GalNAc = biological target: Gal(a1-3)GalNAc
# Method in brief: as §1
binder,measurement,setting,value
B1,glycan array binding signal (z-score),Fuc(a1-3)GlcNAc,-0.034
same,glycan array binding signal (z-score),[1],-0.411
same,glycan array binding signal (z-score),[2],0.21
same,glycan array binding signal (z-score),[3],-0.274
same,glycan array binding signal (z-score),[4],-0.272
same,glycan array binding signal (z-score),[5],-0.388
same,glycan array binding signal (z-score),[6],-0.409
same,glycan array binding signal (z-score),[7],-0.046
same,glycan array binding signal (z-score),[8],-0.413
same,glycan array binding signal (z-score),[9],0.024
same,glycan array binding signal (z-score),[10],-0.172
same,glycan array binding signal (z-score),[11],-0.151
same,glycan array binding signal (z-score),[12],-0.491
same,glycan array binding signal (z-score),[13],0.145
same,glycan array binding signal (z-score),[14],0.526
same,glycan array binding signal (z-score),[15],0.417
same,glycan array binding signal (z-score),[16],0.563
same,glycan array binding signal (z-score),[17],-0.236
same,glycan array binding signal (z-score),Fuc(a1-4)GlcNAc,0.096
same,glycan array binding signal (z-score),Fuc(b1-3)GlcNAc,-0.207
same,glycan array binding signal (z-score),Gal(a1-2)Gal,0.617
same,glycan array binding signal (z-score),Gal(a1-3)Gal,-0.199
same,glycan array binding signal (z-score),Gal(a1-3)Gal(b1-3)GlcNAc,8.73
same,glycan array binding signal (z-score),[18],-0.43
same,glycan array binding signal (z-score),[19],-0.246
same,glycan array binding signal (z-score),[20],-0.309
same,glycan array binding signal (z-score),[21],2.28
same,glycan array binding signal (z-score),[22],-0.183
same,glycan array binding signal (z-score),Gal(a1-3)Gal(b1-4)Glc,-0.19
same,glycan array binding signal (z-score),Gal(a1-3)Gal(b1-4)GlcNAc,-0.271
same,glycan array binding signal (z-score),[23],-0.338
same,glycan array binding signal (z-score),[24],-0.053
same,glycan array binding signal (z-score),[25],-0.213
same,glycan array binding signal (z-score),[26],6.42
same,glycan array binding signal (z-score),[27],-0.064
same,glycan array binding signal (z-score),[28],0.637
same,glycan array binding signal (z-score),Gal(a1-3)GalNAc,-0.381
